Results reported in PubChem BioAssay AID2202238 (Ras Initiative Chemistry Research Team, Frederick National …, 2025).
The list shows a part of the results. Shown are side measurements of this screen, not its main read-out; they come without a call.

Target: GTPase KRas (Homo sapiens) (UniProt P01116)
Experiment: Fragment capture on engineered cysteines, share of protein labelled (AID 2202238)
Design: protein at 5 µM with 500 µM competing thiol for 1.5 h
Conditions: KRAS G12D cysteine mutants, disulfide tethering, MALDI-TOF labeling, stronger effect = higher value, fragment at 500 µM
[1] = measured here: G75C mutant labeling
[2] = measured here: H94C mutant labeling
[3] = measured here: I36C mutant labeling
[4] = measured here: L120C mutant labeling
[5] = measured here: M67C mutant labeling
[6] = measured here: M72C mutant labeling
[7] = measured here: N86C mutant labeling
[8] = measured here: P121C mutant labeling
[9] = measured here: S122C mutant labeling
[10] = measured here: S136C mutant labeling
[11] = measured here: G60C mutant labeling
[12] = measured here: N26C mutant labeling

Chain of UniProt P01116 (P01116 whole entry, looked up, the tested form may be a part): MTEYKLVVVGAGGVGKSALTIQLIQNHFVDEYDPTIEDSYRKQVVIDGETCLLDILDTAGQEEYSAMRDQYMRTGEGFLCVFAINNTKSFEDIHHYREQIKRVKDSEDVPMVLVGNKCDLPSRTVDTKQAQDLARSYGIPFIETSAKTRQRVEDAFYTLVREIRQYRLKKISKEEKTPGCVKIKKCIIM

Compound | percent labeling [1] [%] | percent labeling [2] [%] | percent labeling [3] [%] | percent labeling [4] [%] | percent labeling [5] [%] | percent labeling [6] [%] | percent labeling [7] [%] | percent labeling [8] [%] | percent labeling [9] [%] | percent labeling [10] [%] | percent labeling [11] [%] | percent labeling [12] [%]
Cc1cnc(OC2CCN(C(=O)CCS)CC2)nc1 | 13.3 | 28.9 | 37.2 | 34 | 40 | 30 | 20.7 | 35.7 | 37.3 | 55.2 | – | –
Cc1noc(C)c1CN(C(=O)CCS)c1ccccc1 | 20.5 | 56.5 | 41.4 | 35.8 | 44.2 | 46.5 | 32.5 | 34.4 | 32.9 | 71.3 | – | –
O=C(NCCS)c1cc(C2CCOCC2)no1 | 19.1 | 31.5 | 32 | 41.1 | 36.5 | 48.2 | 25.9 | 32.4 | 34.8 | 48.1 | 30.1 | 29.6
O=C(COc1nsnc1N1CCOCC1)NCCS | 17.2 | 40.3 | 29 | 35.9 | 39.2 | 28.4 | 27 | 31.7 | 31.1 | 45.9 | 39.5 | 39.8
O=C(CCS)N1CCN(c2cccc(F)c2F)CC1 | 19.5 | 33.8 | 31.2 | 31.9 | 39.4 | 42.8 | 22.8 | 31 | 31 | 51.7 | – | –
Cc1ccc2nc(COc3ccc(C(=O)NCCS)cc3)cn2c1 | 7.6 | 8.5 | 5.8 | 8.6 | 7.5 | 39.4 | 4.7 | 5.3 | 3.8 | 5.6 | 15.3 | 26.6
O=C(NCCS)c1nc(C2CC2)n(-c2ccccc2)n1 | 25.5 | 30.7 | 18.2 | 55.2 | 26.1 | 56.8 | 21.3 | 26.8 | 25.3 | 66.4 | 32.4 | 39.2
CCOC(=O)c1ccnc(C2(NC(=O)CCS)CC2)n1 | 6.4 | 32.7 | 36.8 | 28.2 | 30.4 | 16.8 | 27.3 | 26.7 | 32.2 | 46.9 | – | –
O=C(CCC1Cc2ccccc2NC1=O)NCCS (configuration not stated) | 22.3 | 37.2 | 33.5 | 40.1 | 46 | 42.1 | 30.9 | 39.2 | 39.8 | 56.5 | 46.8 | 43.1
O=C(CCS)N1CCc2[nH]cnc2C1c1ccccc1 (configuration not stated) | 38.8 | 49.5 | 46.1 | 41.2 | 58.3 | 52.8 | 37 | 34.6 | 35.5 | 75.2 | – | –
CC(C)c1nc(-c2ccccc2Cl)ncc1C(=O)NCCS | 13.2 | 13.6 | 10.4 | 11.2 | 9.9 | 27.4 | 7.7 | 15.5 | 9.9 | 18.7 | 30.6 | 23.7
O=C(NCCS)[C@@H]1CC[C@H](CN2CCOCC2)O1 | 5.2 | 25.5 | 15.8 | 25.8 | 27.5 | 7.3 | 15.8 | 24.5 | 27.6 | 32.7 | 15.3 | 23.5
O=C(CCS)NC1CCN(c2ncccn2)CC1 | 13.6 | 32.2 | 42.5 | 32 | 47.2 | 21.7 | 18.3 | 35.6 | 37 | 63.3 | – | –
O=C(NCCS)C1CN=C(c2ccccc2)NC1 (configuration not stated) | 16.4 | 35.1 | 42.1 | 33.1 | 42.1 | 18.1 | 24.8 | 34.9 | 23.1 | 47.1 | 33.3 | 39.8
O=C(CC(N1CCOCC1)C(F)(F)F)NCCS (configuration not stated) | 9.5 | 33.1 | 27.3 | 36.1 | 30.2 | 21.4 | 27.7 | 33 | 30.7 | 40.7 | 37.4 | 27.9
O=C(CCS)NCCNC(=O)Cn1ccc(C(F)(F)F)n1 | 7.2 | 30.4 | 35.2 | 29 | 29.9 | 16.8 | 30.4 | 28.8 | 32.2 | 40.1 | – | –
N#Cc1ccc(-c2ccc3c(c2)N(C(=O)CCS)CCO3)cc1 | 16.7 | 32.7 | 27.8 | 17.3 | 19.2 | 39.5 | 22.8 | 19.8 | 7.9 | 46 | – | –
O=C(CCS)NCc1cc(COc2ccccc2F)on1 | 9.6 | 30.1 | 27.2 | 21.1 | 47.6 | 35.4 | 14.5 | 22.8 | 20.8 | 39.2 | – | –
O=C(NCCS)c1c(Cl)cccc1Oc1ccccc1Cl | 14.3 | 17.7 | 7.7 | 21.3 | 22.5 | 32.1 | 5.1 | 11 | 7.7 | 31.9 | 48.2 | 26
Cc1cc(C(=O)NCCS)ccc1-n1cnnn1 | 16 | 22.5 | 26.6 | 27.9 | 24.1 | 38.8 | 16.7 | 25 | 16.7 | 40.4 | 25.8 | 37.7
O=C(CCS)NC[C@@H]1Cc2ccccc2CO1 | 21.8 | 32.3 | 37.6 | 33.6 | 40.5 | 31.7 | 23.1 | 41.1 | 38.6 | 56.5 | – | –
O=C(CC(O)(c1nc2ccccc2s1)C(F)(F)F)NCCS (configuration not stated) | 12.4 | 23.1 | 16.8 | 21.6 | 17.7 | 23 | 11.7 | 16.2 | 10.5 | 18.4 | 50.2 | 22.1
COc1ccc(CCNC(=O)CCS)cc1Br | 16.5 | 34.2 | 33.2 | 20.5 | 27.2 | 48.6 | 17.9 | 25.4 | 23 | 43.4 | – | –
CCC(C)n1ncc2c(C(=O)NCCS)cc(C)nc21 (configuration not stated) | 16.2 | 22.1 | 18.7 | 25 | 24.7 | 49.5 | 17.2 | 18.6 | 22 | 44 | 48.1 | 32.7
O=C(CCS)N(Cc1nc2ccccc2c(=O)[nH]1)CC1CCCO1 (configuration not stated) | 12.2 | 34.4 | 33.2 | 33.9 | 40.4 | 34.3 | 19.8 | 62.3 | 29.2 | 59.1 | – | –
Cc1sc2ncnc(N3CCC(C(=O)NCCS)CC3)c2c1C | 13.7 | 15.2 | 10.4 | 12.1 | 8 | 20.7 | 6.1 | 9.1 | 4.5 | 22.3 | 31 | 22.6
O=C(NCCS)c1cc(-c2ccc3c(c2)CCO3)no1 | 5.4 | 10.1 | 8 | 14.1 | 7.2 | 49.7 | 10 | 10.1 | 8.4 | 13.8 | 10.9 | 19.2
O=C(CCS)Nc1cc(F)c(F)cc1N1CCOCC1 | 17.7 | 30.7 | 35.3 | 23.5 | 29.4 | 43.2 | 25.3 | 26.5 | 23.9 | 39 | – | –
O=C(NCCS)c1cnnn1Cc1ccccc1 | 32.9 | 31.2 | 22.3 | 32 | 43 | 65.1 | 24.2 | 26.9 | 23.9 | 48.3 | 47.3 | 36
O=C(CCS)NCCNc1ncccc1C(F)(F)F | 17.1 | 40.6 | 41.6 | 42.8 | 46 | 37 | 36 | 36.6 | 36.2 | 57 | – | –
